Results on 172 sequences are retold here after publication PMC6212790.

This is one part of the list. At the low end of the ranking the order means little.

The target in the test is T1, GST-Rok (full length) (UniProt O34857).
T1 sequence: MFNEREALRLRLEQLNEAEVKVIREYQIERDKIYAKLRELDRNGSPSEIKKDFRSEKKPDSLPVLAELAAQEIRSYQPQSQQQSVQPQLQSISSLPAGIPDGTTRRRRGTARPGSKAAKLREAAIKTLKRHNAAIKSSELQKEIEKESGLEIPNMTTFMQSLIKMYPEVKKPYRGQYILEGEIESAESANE
Description: protein binding microarray.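 Note: rank score from −0.5 (least bound) to 0.5 (best bound).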 Conditions: Rok is a gene silencer of Bacillus subtilis; high values mean tight binding; most listed sequences are background and not binding sites; double strand, one strand shown.
Sequence AGCTAGAC came in with a binding signal of -0.0113 E-score.

In turn, TAGTTGAA showed a binding signal of 0.274 E-score.

Sequence AACAACTA came in with a binding signal of 0.292 E-score.

GAACTTAA registered a binding signal of 0.0294 E-score.

AGGGCCTC registered a binding signal of -0.24 E-score.

As for GGTACCTA, the binding signal amounted to 0.273 E-score.

As to TTATACAA, the binding signal was determined as 0.294 E-score.

AAGAGTGG gave a binding signal of -0.136 E-score.

With GGTTGTAA, the binding signal was found to be 0.259 E-score.

As to AAAAAGTA, the binding signal was 0.109 E-score.

With GGTACGGA, the binding signal is -0.0669 E-score.

Consider AAAAAATA, for which the binding signal is 0.314 E-score.

For the sequence CATGCCCC, the binding signal was -0.242 E-score.

The sequence ACACCTCA gave a binding signal of 0.0702 E-score.

In the case of GTGCAGCA, the binding signal stood at 0.00937 E-score.

ACTCGGAA: the binding signal is -0.0267 E-score.

Sequence AAAGTCAT registered a binding signal of 0.0668 E-score.

With CATTCTTC, the binding signal worked out at 0.0507 E-score.

Consider AAACCTCA, for which the binding signal was -0.0427 E-score.

The sequence GGATAGCA had a binding signal of 0.0206 E-score.

Take AAAAGAGC: the binding signal was -0.143 E-score.

Take CAGCAACG: the binding signal is -0.0411 E-score.

Regarding AGCTAGCG, the binding signal is 0.0925 E-score.

The sequence CGAACCAC gave a binding signal of -0.0362 E-score.

ATGCGCTA yielded a binding signal of 0.223 E-score.

ACACCATC registered a binding signal of 0.0312 E-score.

ATCGATAA yielded a binding signal of 0.332 E-score.

On to CTGAAATC, for which the binding signal worked out at 0.0357 E-score.

With ATGATAGG, the binding signal turned out to be 0.0932 E-score.

As for ACAGGCTA, the binding signal came out at 0.0256 E-score.

As to CTATCGCA, the binding signal is 0.0969 E-score.

ACGTGACT registered a binding signal of 0.0761 E-score.

ATCCGCCC: the binding signal was -0.206 E-score.

On to GCGTTATA, for which the binding signal was 0.0986 E-score.

ACAATAGC had a binding signal of 0.216 E-score.

Sequence CTACGATC registered a binding signal of 0.218 E-score.

With ATATAGGC, the binding signal is -0.0417 E-score.

ACTTTAAC displayed a binding signal of 0.187 E-score.

In the case of TAACCTCA, the binding signal was -0.0607 E-score.

As to CGTTTTCC, the binding signal was determined as 0.186 E-score.

CCAAAGTA gave a binding signal of 0.125 E-score.

ACATGAGC showed a binding signal of 0.0934 E-score.

In the case of CCTGCTCC, the binding signal is -0.398 E-score.

AGTCGGAC came in with a binding signal of -0.171 E-score.

Take ATTACCAC: the binding signal is 0.215 E-score.

The sequence ATCCCCTA registered a binding signal of -0.186 E-score.

With CAGGCAGG, the binding signal was -0.265 E-score.

In the case of AGACCCGA, the binding signal is -0.29 E-score.

With GACTAGCA, the binding signal came out at 0.0279 E-score.

In the case of AGACCACG, the binding signal is -0.186 E-score.

In the case of ATCGTAGG, the binding signal stood at 0.0847 E-score.

Take GACAGCGA: the binding signal was -0.145 E-score.

With GACCTTGC, the binding signal was -0.0802 E-score.

As for AGAATGAC, the binding signal is 0.0719 E-score.

Regarding GGAAGTAA, the binding signal worked out at 0.139 E-score.

AGTTGCCA: the binding signal turned out to be 0.0433 E-score.

AGTCGGAA yielded a binding signal of -0.199 E-score.

In the case of AGAACGTG, the binding signal worked out at 0.00451 E-score.

GCGGTGCA showed a binding signal of -0.113 E-score.

Sequence GCATCTCC had a binding signal of -0.0641 E-score.

In turn, AAGGAGGC had a binding signal of -0.222 E-score.

The sequence AGGTTATG registered a binding signal of -0.0904 E-score.

As to AGTAGTTG, the binding signal is 0.388 E-score.

In the case of AACTTCCC, the binding signal is -0.222 E-score.

As for ACCACAAG, the binding signal was -0.065 E-score.

The sequence CGCTAAAA displayed a binding signal of 0.0848 E-score.

In turn, AGTCCGCA showed a binding signal of 0.101 E-score.

For the sequence ATAAGATC, the binding signal came out at 0.228 E-score.

In turn, AACTTTGT had a binding signal of -0.0143 E-score.

On to ACCAATTA, for which the binding signal is 0.0426 E-score.

Sequence CTATATAC yielded a binding signal of 0.341 E-score.

ATCCCTTA yielded a binding signal of -0.0767 E-score.

The sequence CTCGCCGA registered a binding signal of -0.251 E-score.

Sequence CACGACCC yielded a binding signal of -0.198 E-score.

As for ACTGGGTG, the binding signal was -0.0702 E-score.

Turning to GGCTGGAC, the binding signal was -0.174 E-score.

In the case of CATACTCG, the binding signal is -0.0403 E-score.

Sequence CACATGAA displayed a binding signal of 0.161 E-score.

The sequence GCGCTACA displayed a binding signal of 0.145 E-score.

The sequence CATGAATG returned a binding signal of 0.161 E-score.

CAGCCCAG came in with a binding signal of -0.285 E-score.

AAACATAC yielded a binding signal of 0.26 E-score.

GAAAAGCC had a binding signal of -0.0461 E-score.

Regarding GGACAAAC, the binding signal came out at 0.0397 E-score.

As to AACTCCTA, the binding signal is 0.0713 E-score.

Consider AGCAGAGC, for which the binding signal was -0.0973 E-score.

Take CGAGATCA: the binding signal was -0.0469 E-score.

Sequence AATTCGAA returned a binding signal of 0.331 E-score.

As for GTGGGTGA, the binding signal stood at 0.0102 E-score.

Consider CGAACACA, for which the binding signal is 0.0244 E-score.

Take GAGCTCGC: the binding signal was -0.257 E-score.

In the case of AACACCCC, the binding signal was -0.208 E-score.

As to ATACTAAT, the binding signal was 0.378 E-score.

In the case of ACATAGCA, the binding signal was 0.0842 E-score.

With GCCGAACC, the binding signal is -0.135 E-score.

For the sequence ATCCCCCG, the binding signal is -0.302 E-score.

CGATAGCG had a binding signal of -0.202 E-score.

Take CCCGGGGA: the binding signal was -0.378 E-score.

As for AAGCTAGC, the binding signal was 0.137 E-score.

On to ATCACCTC, for which the binding signal amounted to 0.0286 E-score.

GTTTAAGA registered a binding signal of -0.0168 E-score.

On to ATTGTCCA, for which the binding signal is -0.000301 E-score.

Regarding CTTCGGTA, the binding signal amounted to 0.14 E-score.

As for GCTCTCCA, the binding signal is -0.332 E-score.

ACCTCCAG returned a binding signal of -0.192 E-score.

Turning to ATGCCAGG, the binding signal was -0.134 E-score.

ACCGGGGC displayed a binding signal of -0.354 E-score.

ATCACGGA came in with a binding signal of -0.0814 E-score.

CGACCAAG displayed a binding signal of 0.113 E-score.

CAAAATTG registered a binding signal of 0.274 E-score.

AAATCCGA gave a binding signal of -0.0125 E-score.

Turning to GCTGCAAC, the binding signal is -0.035 E-score.

The sequence AGATAACT came in with a binding signal of 0.126 E-score.

AGTCAATC showed a binding signal of 0.0284 E-score.

As for GTAGCAAA, the binding signal amounted to 0.199 E-score.

In turn, AGTGCCTA yielded a binding signal of -0.0367 E-score.

Sequence ATGCAATA registered a binding signal of 0.112 E-score.

Consider ATTCAATG, for which the binding signal came out at 0.0514 E-score.

AAATAGAC: the binding signal was 0.0132 E-score.

ATTAGGGA: the binding signal is -0.0389 E-score.

Sequence TATCGCAA displayed a binding signal of 0.0914 E-score.

As for TCTATCCA, the binding signal was -0.0569 E-score.

The sequence AACAGGTT displayed a binding signal of -0.0373 E-score.

Sequence TAAAAGTA showed a binding signal of 0.256 E-score.

In the case of AAGAGGCT, the binding signal was -0.304 E-score.

As to CAAAGGGG, the binding signal is -0.293 E-score.

ATCACATC: the binding signal came out at 0.105 E-score.

In turn, TCTTAACA had a binding signal of 0.0349 E-score.

CGCTCTAA displayed a binding signal of 0.0649 E-score.

Sequence AAGCCAAA displayed a binding signal of -0.0526 E-score.

As for AGATTGCT, the binding signal is -0.0426 E-score.

In the case of CTTGGATA, the binding signal is -0.0642 E-score.

GTTGAACA: the binding signal was -0.0917 E-score.

Consider AACTCGCT, for which the binding signal is -0.0547 E-score.

Regarding GTATCCAC, the binding signal is 0.0386 E-score.

As for CCTAGCGA, the binding signal is -0.111 E-score.

ACTTCCAG yielded a binding signal of 0.0918 E-score.

For the sequence ATATAGAC, the binding signal worked out at 0.0949 E-score.

In turn, AGTAATAT showed a binding signal of 0.402 E-score.

On to ACACTAGT, for which the binding signal is 0.32 E-score.

Sequence CCACGAGG yielded a binding signal of -0.297 E-score.

Sequence ACACCCAC came in with a binding signal of -0.00415 E-score.

GGGCCTTA: the binding signal is -0.25 E-score.

TATTCTAA registered a binding signal of 0.187 E-score.

Sequence CAGCTCAG returned a binding signal of -0.202 E-score.

ACCCTAGT displayed a binding signal of 0.155 E-score.

Sequence GGGCACAC came in with a binding signal of -0.2 E-score.

Regarding GCCGTCTA, the binding signal is -0.0749 E-score.

With CGGTATAG, the binding signal came to 0.119 E-score.

Sequence CAGTAAGG returned a binding signal of -0.0572 E-score.

As for CATGCAGG, the binding signal is 0.0103 E-score.

As for ACCCGCCG, the binding signal is -0.225 E-score.

In turn, GAGGATCA registered a binding signal of -0.196 E-score.

Take CGCGATTA: the binding signal came out at 0.109 E-score.

Sequence ATACCGAA showed a binding signal of 0.097 E-score.

Regarding ACGTATCC, the binding signal is 0.0655 E-score.

As for AAGTGAGG, the binding signal was -0.195 E-score.

GGGGCCTA yielded a binding signal of -0.383 E-score.

In turn, CGTCCCCC came in with a binding signal of -0.264 E-score.

Sequence GGTGCTCA showed a binding signal of -0.159 E-score.

Turning to ATAATACG, the binding signal worked out at 0.349 E-score.

CATGCTTC showed a binding signal of -0.0582 E-score.

AAGTTTTA returned a binding signal of 0.244 E-score.

In turn, GCCTTGTA returned a binding signal of -0.0817 E-score.

With ATATTTTA, the binding signal stood at 0.412 E-score.

ACCGACCC displayed a binding signal of -0.317 E-score.

GGCCAAAC: the binding signal was -0.0224 E-score.

As for ACTACACC, the binding signal came out at 0.231 E-score.

The sequence AACAGCCG registered a binding signal of -0.153 E-score.

On to CCAGAACG, for which the binding signal is -0.0311 E-score.

Regarding AAAATCAT, the binding signal is 0.215 E-score.

Sequence GGACCTTA gave a binding signal of -0.175 E-score.
